# Reference: PubChem BioAssay AID686978 (National Center for Advancing Translational Sciences (NCATS), 2013)
# About 64,000 (15%) of roughly 420,000 compounds were called active. The shares of active, inactive and inconclusive entries below differ from those in the screen. Calls come from the whole dose curve; as a rule, active = well fitted inhibition curve with a large enough effect; inconclusive = small, poorly fitted or top-dose-only effect; inactive = flat fitted curve, though single readings scatter. Potencies of inconclusive entries are left out as doubtful fits.
# Test: qHTS for Inhibitors of human tyrosyl-DNA phosphodiesterase 1 (TDP1): qHTS in cells in absence of CPT; note: nearly all actives have a fitted effect of over 55% in size
# Settings: DT40 Tdp1-/- hTDP1 cells, no CPT, ATP luminescence, 48 h; activity change, negative = growth inhibition: at 46.2 µM (top of the series) unless noted
# Summary of the method: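 Growth kinetics read by CellTiter-Glo luminescence after ≥48 hr at 37 °C. Cells: DT40 Tdp1-/- stably carrying human TDP1, 400 per well, compound exposure in the absence of CPT (DMSO vehicle).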
# % is set by controls: 0 for no effect and ±100 for the full control effect; potency is the fitted concentration of half-maximal effect; tags give direction and shape of the fitted curve.
SMILES,Potency,"activity change, negative = growth inhibition"
CCOC(=O)c1c(NC(=O)CN2C(=O)NC3(CCC(C)CC3)C2=O)sc(C)c1CC (stereo unspecified),inactive,–
CC(=O)Nc1ccc(NC(=O)CSc2ncnc3sc(C)c(C)c23)cc1,"inconclusive [inhibitor, single point]",–
O=C(NNC(=O)c1sccc1-n1cccc1)Nc1ccc(F)cc1,inactive,–
O=S(=O)(c1ccc(F)cc1)N1CCC(Oc2cccc(C(F)(F)F)c2)CC1,"inconclusive [inhibitor, single point]",–
CC1Cc2ccccc2N1S(=O)(=O)c1ccc2c(c1)n(C)c(=O)c(=O)n2C (stereo unspecified),inactive,–
O=C(COC(=O)Cc1ccc(F)cc1)Nc1ccc(Cl)cn1,inactive,–
O=C(CCCc1ccccc1)NC12CC3CC(CC(C3)C1)C2,"inconclusive [inhibitor, partial curve]",–
CNc1cncc(-c2ccc(OC)c(OC)c2)n1,inactive,–
COc1cc2c(cc1OC)CN(c1ccc(C(N)=O)cc1[N+](=O)[O-])CC2,"inconclusive [inhibitor, single point]",–
CCOc1cc(NC(=O)CCl)c(OCC)cc1NC(=O)CCl,active: 1.16 µM,–
COc1ccc(CCNC(=O)CCCn2c(=O)c3ccccc3n(Cc3ccccc3)c2=O)cc1OC,active: 16.4 µM,–
Cc1ccn2c(=O)nc(SCc3cccc(C(F)(F)F)c3)nc2c1,"inconclusive [inhibitor, partial curve]",–
COc1cccc(CNC(=O)C(=O)NCC(c2cccs2)S(=O)(=O)c2ccccc2)c1 (stereo unspecified),"inconclusive [inhibitor, single point]",–
Cc1csc(C(C)NC(=O)c2ccc(OC3CCN(CCc4ccccc4)CC3)cc2)n1 (stereo unspecified),"inconclusive [inhibitor, partial curve]",–
CCOC(=O)C(=CNc1nc(-c2ccc3ccccc3c2)cs1)C(=O)OCC,"inconclusive [inhibitor, single point]",–
O=C(COC(=O)C1CCC1)NCc1ccccc1Cl,inactive,–
Cc1c(N2C(=O)/C(=C\c3cccc4ccccc34)SC2=S)c(=O)n(-c2ccccc2)n1C,"inconclusive [inhibitor, single point]",–
COc1cccc(CN(C)Cc2cc(=O)oc3c(C)c(C)ccc23)c1,"inconclusive [inhibitor, partial curve, poor fit]",–

SMILES,Potency,"activity change, negative = growth inhibition"
Cc1cccc(N2CCN(C(=O)c3ccc4c(c3)N(Cc3ccccc3)C(=O)c3ccccc3S4(=O)=O)CC2C)c1 (stereo unspecified),"inconclusive [inhibitor, full curve]",–
N#Cc1ccc(C(S(=O)(=O)Cc2ccccc2)S(=O)(=O)Cc2ccccc2)cc1,"inconclusive [inhibitor, single point]",–
Cc1ccc(-c2nc(S(=O)(=O)c3ccc(C)cc3)c(SCC(N)=O)o2)cc1,"inconclusive [inhibitor, single point]",–
COc1ccc(/C=N/NC(=S)Nc2cccc(C(=O)O)c2)cc1OC,inactive,–
Cc1ccc(C(=O)Cn2nnc3ccccc32)cc1[N+](=O)[O-],inactive,–
C=C1CCN([C@@H](CC(C)C)C(=O)NCCCc2ccccc2)S(=O)(=O)c2ccccc21,"inconclusive [inhibitor, single point]",–
Cc1cccc(CCNC(=O)c2cc(S(=O)(=O)N3CCCCC3)c[nH]2)c1,"inconclusive [inhibitor, single point]",–
Cc1ccc2[nH]c(=O)c(C3C(C#N)=C(N)Oc4c3ccc3cccnc43)cc2c1 (stereo unspecified),active: 20.6 µM,–
Oc1ccc(/C=N/Nc2nc(-c3ccc(Cl)cc3)cc(C(F)(F)F)n2)cc1,"inconclusive [inhibitor, single point]",–
CCCC(c1nnnn1C(C)(C)CC)N(Cc1ccco1)Cc1cc2ccc(OC)cc2[nH]c1=O (stereo unspecified),"inconclusive [inhibitor, single point]",–
O=C(COc1ccc2ccccc2c1CN1CCOCC1)N1CCc2ccccc21,"inconclusive [inhibitor, partial curve]",–
CCCn1c(N)c(N(CCOC)C(=O)CSc2cc(C)c3ccccc3n2)c(=O)[nH]c1=O,inactive,–
CSc1nc2c(c(=O)[nH]1)C(c1cccc(Cl)c1Cl)CC(=O)N2 (stereo unspecified),"inconclusive [inhibitor, single point]",–
O=C(Nc1ccccc1)c1cc(C2CCCCN2C(=O)OCCF)on1 (stereo unspecified),"inconclusive [inhibitor, single point]",–
COC(=O)C1=C(N)N(c2ccc(F)cc2)C2=C(C(=O)CCC2)C1c1ccc2c(c1)OCO2 (stereo unspecified),–,inconclusive: -33.2% [inhibitor]
Cc1noc(C)c1C(=O)N1CCC[C@@]2(CCN(C(=O)Nc3cccc(F)c3)C2)C1,–,inconclusive: -30.1% [inhibitor]
O=C1CC(=C(c2ccccc2)c2ccccc2)C(=O)N1CCN1CCN(c2cccc(Cl)c2)CC1,"inconclusive [inhibitor, single point]",–
CCOC(=O)c1[nH]c(=O)[nH]c1CSc1nc(C)cc(C)n1,inactive,–
